Drawing on the supplement of paper PMC8821664, this text covers AQP5-HiBiT luminescence for 40 molecules.

SMILES strings stand for the structures. Where a name gives a salt, the structure may show the parent alone. Some of the results follow. Most values come without repeats; read them as rough.
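Further: monoclonal Beas-2B line stably carrying CMV promoter-driven AQP5-HiBiT, 5,000 cells per well in 384-well plates, lytic HiBiT plus LgBiT NanoLuc luminescence, FDA-approved drug library screen.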

The assay has as its system Beas-2B AQP5-HiBiT reporter cells. The experiment in a line: AQP5-HiBiT luminescence relative to vehicle (ratio to vehicle); higher = higher AQP5-HiBiT protein abundance. To be noted: 10 µM; 18 h. Background: HiBiT is a short tag that completes a luciferase, so light tracks the accessible tagged protein.
Consider `C#CC1(O)CC[C@H]2[C@@H]3CCC4=CC(=O)CC[C@@H]4[C@H]3CC[C@@]21CC` (stereo not given in full) [Norgestrel], for which the AQP5-HiBiT luminescence was found to be 0.935.

Regarding `CC1(C)O[C@@H]2C[C@H]3[C@@H]4C[C@H](F)C5=CC(=O)C=C[C@]5(C)[C@@]4(F)[C@@H](O)C[C@]3(C)[C@]2(C(=O)CO)O1` [Fluocinolone acetonide], the AQP5-HiBiT luminescence came to 0.785.

Turning to `CN1CCc2nc(C(=O)N[C@@H]3C[C@@H](C(=O)N(C)C)CC[C@@H]3NC(=O)C(=O)Nc3ccc(Cl)cn3)sc2C1` [Edoxaban], the AQP5-HiBiT luminescence worked out at 0.722. With `COCCOC(=O)C1=C(C)NC(C)=C(C(=O)OC(C)C)C1c1cccc([N+](=O)[O-])c1` (stereo not given) [Nimodipine] the figure was 0.517. With `C[C@H]1C[C@@H]2[C@H]([C@@H](O)C[C@@]3(C)[C@H]2CC[C@]3(O)C(=O)CO)[C@@]2(C)C=CC(=O)C=C12` [Methylprednisolone] the figure was 0.65. Consider `Cc1cc2c(s1)Nc1ccccc1N=C2N1CCN(C)CC1` [Olanzapine], for which the AQP5-HiBiT luminescence is 1.46.

Take `CO/N=C(\C(=O)N[C@@H]1C(=O)N2C(C(=O)OC(C)OC(C)=O)=C(COC(N)=O)CS[C@H]12)c1ccco1` (stereo not given in full) [Cepazine]: the AQP5-HiBiT luminescence was 0.782.

With `CCN(CC)C(=O)/C(C#N)=C/c1cc(O)c(O)c([N+](=O)[O-])c1` [Entacapone], the AQP5-HiBiT luminescence turned out to be 0.625. With `CC(C)(C)NCC(O)COc1cccc2c1CC(O)C(O)C2` (stereo not given) [Nadolol] the figure was 1.54; with `C[C@@H]1CN(c2c(F)c(N)c3c(=O)c(C(=O)O)cn(C4CC4)c3c2F)C[C@H](C)N1` [Sparfloxacin], 1.46.

In the case of `Clc1cccc(Cl)c1NC1=NCCN1` [Clonidine hydrochloride], the AQP5-HiBiT luminescence is 0.991. Then `N=C(N)NCCN1CCCCCCC1` [Guanethidine Monosulfate], with 1.1; and `CCCc1nn(C)c2c(=O)[nH]c(-c3cc(S(=O)(=O)N4CCN(C)CC4)ccc3OCC)nc12` [Sildenafil], with 1.3; and `Cc1onc(-c2c(Cl)cccc2Cl)c1C(=O)N[C@@H]1C(=O)N2[C@@H]1SC(C)(C)[C@@H]2C(=O)O` [Dicloxacillin sodium], with 0.679. `Cc1cnc(C(=O)NCCc2ccc(S(=O)(=O)NC(=O)NC3CCCCC3)cc2)cn1` [Glipizide]: the AQP5-HiBiT luminescence is 1.09.

Regarding `CCCCCCCCCC(=O)N[C@@H](Cc1c[nH]c2ccccc12)C(=O)N[C@H](CC(N)=O)C(=O)N[C@@H](CC(=O)O)C(=O)N[C@@H]1C(=O)NCC(=O)N[C@@H](CCCN)C(=O)N[C@@H](CC(=O)O)C(=O)N[C@H](C)C(=O)N[C@@H](CC(=O)O)C(=O)NCC(=O)N[C@H](CO)C(=O)N[C@@H]([C@H](C)CC(=O)O)C(=O)N[C@@H](CC(=O)c2ccccc2N)C(=O)O[C@@H]1C` [Daptomycin], the AQP5-HiBiT luminescence was 1.4. With `CN(C)[C@@H]1C(O)=C(C(N)=O)C(=O)[C@@]2(O)C(O)=C3C(=O)c4c(O)ccc(Cl)c4[C@@H](O)[C@H]3C[C@@H]12` [Demeclocycline hydrochloride] the figure was 0.727. For `CN1C2CCC1CC(OC(=O)C(O)c1ccccc1)C2` (stereo not given) [Homatropine Bromide], the AQP5-HiBiT luminescence was found to be 0.895. Then `CCOC(=O)c1ccc(C#Cc2ccc3c(c2)C(C)(C)CCS3)nc1` [Tazarotene], with 1.15. Then `CCCc1nc2c(C)cc(-c3nc4ccccc4n3C)cc2n1Cc1ccc(-c2ccccc2C(=O)O)cc1` [Telmisartan], with 1.27; and `CC(O)(P(=O)(O)O)P(=O)(O)O` [Sodium etidronate], with 0.978; and `C=CC1=C(C(=O)O)N2C(=O)[C@@H](NC(=O)/C(=N\OCC(=O)O)c3csc(N)n3)[C@H]2SC1` [Cefixime], with 0.794. In the case of `O=C1CN(/N=C/c2ccc([N+](=O)[O-])o2)C(=O)N1` [Nitrofurantoin], the AQP5-HiBiT luminescence is 0.865. With `CO/N=C(\C(=O)N[C@@H]1C(=O)N2C(C(=O)O)=C(COC(C)=O)CS[C@H]12)c1csc(N)n1` [Cefotaxime sodium] the figure was 0.903. With `OCCOCCN1CCN(C2=Nc3ccccc3Sc3ccccc32)CC1` [Quetiapine Fumarate] the figure was 1.12; with `Cc1cc(C)cc(OCC2CNC(=O)O2)c1` (stereo not given) [Metaxalone], 0.977. For `CO/N=C(\C(=O)N[C@@H]1C(=O)N2C(C(=O)O)=C(CSc3nnnn3C)CS[C@H]12)c1csc(N)n1` [Cefmenoxime hydrochloride], the AQP5-HiBiT luminescence amounted to 1.14. With `C=C(c1ccc(C(=O)O)cc1)c1cc2c(cc1C)C(C)(C)CCC2(C)C` [Bexarotene] the figure was 1.32; with `CC(COc1ccccc1)N(CCCl)Cc1ccccc1` (stereo not given) [Phenoxybenzamine hydrochloride], 0.927; with `CCC(C)N1CCCC1=O` (stereo not given) [Povidone-iodine (PVP-I)], 0.977.

As for `COc1cc(N)c(Cl)cc1C(=O)NC1CCN(CCCOc2ccc(F)cc2)CC1OC` (stereo not given) [Cisapride], the AQP5-HiBiT luminescence was 1.18. Then `O=C(O)c1cccnc1` [Nicotinic acid], with 0.719.

Consider `COC(=O)C1=C(C)NC(C)=C(C(=O)OCC(C)C)C1c1ccccc1[N+](=O)[O-]` (stereo not given) [Nisoldipine], for which the AQP5-HiBiT luminescence was determined as 0.92. As to `CCN(CC)CCCC(C)Nc1ccnc2cc(Cl)ccc12` (stereo not given) [Chloroquine diphosphate], the AQP5-HiBiT luminescence is 1.71. Then `NC(=O)N1c2ccccc2C=Cc2ccccc21` [Carbamazepine], with 0.784.

On to `CC1OC2(CS1)CN1CCC2CC1` (stereo not given) [Cevimeline hydrochloride hemihydrate], for which the AQP5-HiBiT luminescence stood at 0.648. With `CNCCC(Oc1ccc(C(F)(F)F)cc1)c1ccccc1` (stereo not given) [Fluoxetine] the figure was 0.748. Regarding `CC(=O)OCC(=O)[C@@]1(O)CC[C@H]2[C@@H]3CCC4=CC(=O)CC[C@]4(C)[C@H]3[C@@H](O)C[C@@]21C` [Hydrocortisone acetate], the AQP5-HiBiT luminescence is 0.721. Then `CCCSc1ccc2[nH]c(NC(=O)OC)nc2c1` [Albendazole], with 2.66.

With `CN(Cc1cnc2nc(N)nc(N)c2n1)c1ccc(C(=O)N[C@@H](CCC(=O)O)C(=O)O)cc1` [Methotrexate], the AQP5-HiBiT luminescence was 1.78.
